# Assay results: PubChem BioAssay AID493035 (The Scripps Research Institute Molecular Screening Center, 2011)
# Among all 2,000 compounds or so, about 45 (2%) were called active.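 Rule for the calls: active = inhibition above the mean of all tested compounds plus 3 SD (cut at about 49% in these data); inactive = the rest.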 This is one part of the list.
# Target: Perilipin-5 (Homo sapiens) + 1-acylglycerol-3-phosphate O-acyltransferase ABHD5 (Homo sapiens) (UniProt Q00G26+Q8WTS1)
# Assay: blockers of ABHD5 binding to perilipin-5 – cell lysate, split luciferase complementation, luminescence, NIH validation set, pilot screen (AID 493035);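 note: 0% = DMSO only wells while the 100% control is not stated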
# Details: split G. princeps luciferase complementation, lysates, 4 h; at 7.9 µM, stronger effect = higher value
# Chain of UniProt Q00G26 (Q00G26 whole entry, looked up): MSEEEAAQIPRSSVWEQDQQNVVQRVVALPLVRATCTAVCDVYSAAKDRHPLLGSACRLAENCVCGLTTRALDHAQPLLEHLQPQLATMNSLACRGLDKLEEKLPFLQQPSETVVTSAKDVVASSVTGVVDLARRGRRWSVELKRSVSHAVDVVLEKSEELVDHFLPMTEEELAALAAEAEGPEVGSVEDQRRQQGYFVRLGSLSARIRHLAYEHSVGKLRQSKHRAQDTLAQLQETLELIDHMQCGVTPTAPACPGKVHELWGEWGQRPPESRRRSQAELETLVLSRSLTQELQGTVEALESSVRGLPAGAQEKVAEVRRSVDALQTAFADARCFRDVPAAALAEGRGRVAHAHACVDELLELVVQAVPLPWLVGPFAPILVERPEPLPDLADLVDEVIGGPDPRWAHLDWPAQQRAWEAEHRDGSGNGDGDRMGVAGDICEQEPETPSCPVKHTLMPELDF
# Chain of UniProt Q00G26 (Q8WTS1 whole entry, looked up): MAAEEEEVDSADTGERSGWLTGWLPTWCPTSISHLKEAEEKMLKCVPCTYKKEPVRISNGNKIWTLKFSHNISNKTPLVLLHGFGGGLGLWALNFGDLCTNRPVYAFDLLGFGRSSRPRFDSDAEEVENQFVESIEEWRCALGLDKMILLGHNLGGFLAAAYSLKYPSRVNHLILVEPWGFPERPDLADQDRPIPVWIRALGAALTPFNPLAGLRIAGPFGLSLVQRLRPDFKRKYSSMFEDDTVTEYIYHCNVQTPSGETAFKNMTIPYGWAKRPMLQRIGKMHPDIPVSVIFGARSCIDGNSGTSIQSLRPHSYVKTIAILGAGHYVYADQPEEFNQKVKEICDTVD
row,Structure (SMILES),inhibition
1,CCOC(=O)c1ccc(NC(=S)NCCc2ccccc2F)cc1,inactive: -13.2%
2,NC(=O)N1c2ccccc2CC(=O)c2ccccc21,inactive: -2.58%
3,CC12CCC(C(=O)Nc3ccccc3Br)(C/C1=N\O)C2(C)C (stereo unspecified),inactive: -6.37%
4,CC12CCC(C(=O)N3CCc4ccccc43)(CC1=O)C2(C)C (stereo unspecified),inactive: -4.02%
5,CC12COC3(C(=O)Nc4ccc(F)cc4)CC1CCC32C (stereo unspecified),inactive: -5.49%
6,COc1ccc2c(c1)C=CC1(O2)N(CCO)c2ccccc2C1(C)C (stereo unspecified),active: 50.9%
7,O=Cc1ccc(N2CCCCC2)cc1,inactive: 9.57%
8,C[C@]12CC[C@H]3[C@@H](CCC4=CC(=O)CC[C@@]43C)[C@@H]1CC[C@@H]2C(=O)CO,inactive: 3.56%
9,COc1cc(C=NCC2OCCc3ccccc32)cc(OC)c1 (stereo unspecified),inactive: -6.43%
10,COc1cc(NS(=O)(=O)c2ccc(N)cc2)nc(OC)n1,inactive: -10.3%
11,O=C(O)c1cc(-c2ccc3c(c2)OCO3)nc2ccc(Br)cc12,inactive: -1.26%
12,CC(C)c1ccc(OCc2ccc(C(=O)O)o2)cc1,inactive: -1.94%
13,O=C(c1ccco1)N1CCCN(Cc2nc(-c3ccc4c(c3)OCO4)no2)CC1,inactive: 9.36%
14,COc1ccc(C2=CC(=O)C=CC2=O)cc1,active: 69.1%
15,CCOC(=O)c1ccc(N2C(=O)C(CC(=O)NC)N(CCc3ccc(OC)c(OC)c3)C2=S)cc1 (stereo unspecified),inactive: -1.7%
16,CC(=O)CC(c1ccc([N+](=O)[O-])cc1)c1c(O)c2ccccc2oc1=O (stereo unspecified),inactive: -0.46%
17,CCCCCCCCNC(C)C(O)c1ccc(SC(C)C)cc1 (stereo unspecified),inactive: -31.6%
18,c1ccc(SSc2ccccc2)cc1,inactive: -5.71%
19,COc1ccc2[nH]c(C)c(CN3CCC(C)CC3)c(=O)c2c1,inactive: -4.66%
20,Cc1ccccc1C(=O)NCC(=O)O,inactive: 3.06%
21,Clc1ccc2c(c1)[C@H]1OCC[C@H]1[C@@H](c1ccco1)N2,inactive: 9.61%
22,COc1ccc2cc(C3(C)NC(=O)NC3=O)ccc2c1 (stereo unspecified),inactive: -13%
23,Cc1ccccc1OCCSc1nc2ncnc(N)c2[nH]1,inactive: -10.3%
24,COc1ccc2nc(S(=O)Cc3ncc(C)c(OC)c3C)[nH]c2c1 (stereo unspecified),inactive: 27.6%

row,Structure (SMILES),inhibition
1,O=CNC1CCCc2c1[nH]c1ccc(Cl)cc21 (stereo unspecified),inactive: -3.92%
2,CCCC(=O)O[C@]1(C(=O)CO)CC[C@H]2[C@@H]3CCC4=CC(=O)CC[C@]4(C)[C@H]3[C@@H](O)C[C@@]21C,inactive: 2.01%
3,O=c1cc(CN2CCN(c3cccc(Cl)c3)CC2)c2cc(O)c(-c3ccccc3)cc2o1,inactive: 3.36%
4,COc1ccc2oc(=O)c(-c3nc(C)cs3)cc2c1,inactive: -10.9%
5,COc1cc2c(cc1OC)C1(CCCCC1)CN(C)C2,inactive: 5.94%
6,O=c1[nH]c(=O)n([C@H]2C[C@H](O)[C@@H](CO)O2)cc1C(F)(F)F,inactive: -11.2%
7,CC(C)C(=O)Nc1ccc2c3c(cccc13)CC2,inactive: -5.83%
8,Cc1nnc(SCC2=C(C(=O)O)N3C(=O)[C@@H](NC(=O)Cn4cnnn4)[C@H]3SC2)s1,inactive: -0.16%
9,C=C(C)COc1ccc(-c2n[nH]c(C)c2-c2ccc(OC)cc2)c(O)c1,inactive: -1.33%
10,COCCOC(=O)C1=C(C)NC(C)=C(C(=O)OC(C)C)C1c1cccc([N+](=O)[O-])c1 (stereo unspecified),inactive: 0.47%
11,CN1C(C(=O)Nc2ccccn2)=C(O)c2ccccc2S1(=O)=O,inactive: -1.31%
12,COc1ccc2c(c1)C(=O)CC(c1ccccc1F)O2 (stereo unspecified),inactive: 0.11%
13,CC1(C)CC(c2csc(N)n2)CCO1 (stereo unspecified),inactive: -7.46%
14,O=C(O)CCCNc1ccc(S(=O)(=O)Nc2ccccc2C(=O)O)cc1C(=O)O,inactive: -8.17%
15,Cc1ccc2c(ccc(=S)n2C)c1,inactive: -5.06%
16,CC1(C)[C@@H](O)CC[C@]2(C)[C@H]3C(=O)C=C4[C@@H]5C[C@@](C)(C(=O)O)CC[C@]5(C)CC[C@@]4(C)[C@]3(C)CC[C@@H]12,inactive: 6.15%
17,COc1cc(C(=O)NCCc2c[nH]c3ccccc23)ccc1OCc1c(C)noc1C,inactive: 6.63%
18,CN(C)CCCNc1ncnc2c1cnn2-c1ccccc1,inactive: -7.25%
19,COc1cc(NC(=O)COc2ccccc2)c(OC)cc1NC(C)=O,inactive: -6.54%
20,CN1/C(=C\C=Nc2ccccc2)C(C)(C)c2ccccc21,inactive: 14.1%
21,Cc1ccc(C)c(OCCCC(C)(C)C(=O)O)c1,inactive: -9.25%
22,O=C(CCCN1CCC(O)(c2ccc(Cl)cc2)CC1)c1ccc(F)cc1,inactive: -0.3%
23,O=C(NC(=S)Nc1nc(-c2ccccc2)cs1)c1ccco1,inactive: 5.13%
24,Cc1cccc2c1CC(C)(C)N/C2=C\C(N)=O,inactive: 5.35%

row,Structure (SMILES),inhibition
1,CC(C[N+](C)(C)C)OC(N)=O (stereo unspecified),inactive: -0.78%
2,CN(C)CCN(Cc1ccc(Cl)cc1)c1ccccn1,inactive: -5.33%
3,O=C(c1cccc2ccccc12)C1CCCN(C(=O)CCN2CCCO2)C1 (stereo unspecified),inactive: -5.83%
4,Cc1onc(-c2c(Cl)cccc2Cl)c1C(=O)NC1C(=O)N2C1SC(C)(C)C2C(=O)O (stereo unspecified),inactive: -1.84%
5,CN(CCCN1CCOCC1)Cc1cn(C)nc1-c1ccccc1F,inactive: -0.55%
6,COc1ccc([C@@H]2Sc3ccccc3N(CCN(C)C)C(=O)[C@@H]2OC(C)=O)cc1,inactive: -6.83%
7,COC(=O)[C@@H](N)CS,active: 78.9%
8,O=C(CS(=O)(=O)c1ccccc1)c1ccc2c(c1)OCCO2,inactive: -11.9%
9,Cc1cn([C@H]2C[C@H](N=[N+]=[N-])[C@@H](CO)O2)c(=O)[nH]c1=O,inactive: 4.68%
10,CC(C)c1ccc2[nH]c3c(c2c1)CCCC3=O,inactive: 2.54%
11,COC(=O)c1cc(Br)c(=O)n(CCc2ccc(O)cc2)c1,inactive: -0.86%
12,Cc1ccc2c(c1)C(CCN)C(=O)N2Cc1ccccc1 (stereo unspecified),inactive: -12%
13,CCOC(=O)C1NN=C(C(=O)c2ccccc2)C1c1ccc(Cl)cc1 (stereo unspecified),inactive: 2.66%
14,CCOc1ccc(C(NC(C)=O)c2ccc(OC)c(OC)c2)cc1 (stereo unspecified),inactive: -7.04%
15,CC1(c2ccccc2)CC(C)(C)N2C(=O)C(=O)c3cccc1c32 (stereo unspecified),active: 59.8%
16,CCOc1ccc2nc(N/C(N)=N/S(C)(=O)=O)nc(C)c2c1,inactive: 0.92%
17,C#CCN1C(=O)C(O)(CC(=O)c2ccc(OC)c(OC)c2)c2ccccc21 (stereo unspecified),inactive: 4.95%
18,CCCCC1C(=O)N(c2ccccc2)N(c2ccccc2)C1=O,inactive: 5.15%
19,COc1ccccc1/C=C/C(=O)OCCN1CCOCC1,inactive: -8.59%
20,COc1ccc(S(=O)(=O)NC(Cc2cnc[nH]2)C(=O)O)cc1 (stereo unspecified),inactive: 6.14%
21,CC1/C(=C\c2ccc(Cl)cc2)C(=O)C2CC1C2(C)C (stereo unspecified),inactive: -2.73%
22,CN(C)CCOc1ccccc1Cc1ccccc1,inactive: 7.5%
23,CC1=CC(=O)c2ccccc2C1=O,inactive: 46.6%
24,CCCC(=O)Nc1ccc(OCC(O)CNC(C)C)c(C(C)=O)c1 (stereo unspecified),inactive: -3.06%

row,Structure (SMILES),inhibition
1,CCn1c(C)cc2c(c1=O)C(c1ccccc1)C(C(=O)OC)=C(N)O2 (stereo unspecified),inactive: 0.01%
2,NC(=O)c1c(-c2ccccc2)oc2ccc(O)cc12,inactive: -5.91%
3,COc1ccc(C2C3CCCCC3(O)CCN2C(=O)c2cccs2)cc1 (stereo unspecified),inactive: -2.4%
4,O=c1c(-c2ccccc2)c(O)c2cccc3c2n1CCC3,inactive: -1.59%
5,COc1ccc(C2=NOC(COc3ccc4c(C)cc(=O)oc4c3)C2)c(OC)c1 (stereo unspecified),inactive: 27.1%
6,CN(C)[C@@H]1C(=O)C(C(=O)NCN2CCCC2)=C(O)[C@@]2(O)C(=O)C3=C(O)c4c(O)cccc4[C@@](C)(O)C3CC12 (stereo partly specified),inactive: 11.2%
7,Cc1ccc(S(=O)(=O)NC(C(=O)Oc2cc3oc(=O)cc(C)c3cc2Cl)C(C)C)cc1 (stereo unspecified),inactive: 26.5%
8,Cc1[nH]c2ccccc2c1C(=O)C(=O)NCc1ccco1,inactive: -9.25%
9,Cc1cnc(N)c2c(=O)oc3ccccc3c12,inactive: -0.88%
10,COCCN(CCOC)Cc1c(C)[nH]c2c(C)c(C)ccc2c1=O,inactive: 6.95%
11,CCC(=O)Oc1ccc(C(=O)Nc2ccc([N+](=O)[O-])cc2)cc1,inactive: 7.96%
12,CS(=O)(=O)c1cccc(C(=O)Oc2ccccc2)c1,inactive: 3.1%
13,CC(=O)OCC(=O)[C@@]12OC3(CCCC3)O[C@@H]1C[C@H]1[C@@H]3CCC4=CC(=O)C=C[C@]4(C)[C@@]3(F)[C@@H](O)C[C@@]12C,inactive: 3.12%
14,C=CCOC(=O)C1=C(C)NC(=O)NC1/C=C/c1ccccc1OC (stereo unspecified),inactive: -9.8%
15,O=C(/C=C/c1ccc2c(c1)OCCCO2)c1ccc2ccccc2c1O,inactive: 26.6%
16,Nc1nnc(CSCc2ccc(Cl)cc2Cl)s1,inactive: 3.53%
17,C(=C/c1nccc2c1[nH]c1ccccc12)/c1ccc2c(c1)OCO2,inactive: 9.67%
18,OCC1CCN(Cc2cn(Cc3ccccc3)nc2-c2cc3ccccc3o2)CC1,inactive: 3.18%
19,CC1(C)Cc2ccccc2-c2n[nH]c(=S)n21,inactive: -12.1%
20,CC1CCCC(C)N1NC(=O)c1ccc(Cl)c(S(N)(=O)=O)c1 (stereo unspecified),inactive: -2.56%
21,Nc1nnc(-c2cccc(Cl)c2Cl)c(N)n1,inactive: -8.24%
22,COc1ccccc1CCn1cnc2c3cc(C)ccc3n(C)c2c1=O,inactive: 12.2%
23,COc1ccc2c(c1)c(=O)oc1cc3occ(C(C)(C)C)c3cc12,inactive: -10.9%
24,CC(=O)/C=C/c1ccc(C)o1,inactive: 23.3%
